Experimental data taken from a compilation of properties of binary mixtures (doi:10.1016/j.molliq.2022.119758).
The densities may have been worked out from excess volumes.

Assay: xn = mol fraction of the nth substance listed
Details: 101 kPa

CCC[N+]1(C)CCCC1.O=S(=O)([N-]S(=O)(=O)C(F)(F)F)C(F)(F)F + O=C1CCCO1
mass density [kg/m3]
Details	278.15 K	288.15 K	298.15 K	308.15 K	318.15 K	328.15 K	338.15 K	348.15 K	358.15 K
x1 = 0.0657	–	1197	1187.2	1177.5	1167.8	1158.2	–	1138.8	1129.2
x1 = 0.1741	1277.1	–	1257.8	1248.1	1238.6	–	–	–	–
x1 = 0.3874	1345.4	1335.9	1326.3	1316.9	1307.5	1298.9	1288.9	1279.6	1270.4
x1 = 1	–	1436.5	1427.5	1418.5	1409.6	1400.7	1391.9	1382.5	–

O=C1CCCO1 + CCC[N+]1(C)CCCC1.O=S(=O)([N-]S(=O)(=O)C(F)(F)F)C(F)(F)F
x2 = 0
Details	mass density [kg/m3]
278.15 K	1144.7
298.15 K	1125
308.15 K	1115.2
328.15 K	1095.5
338.15 K	1085.6
358.15 K	1065.7
